# Experimental data reported in the supplement of paper PMC8728848.
# This is one part of the list.
# Key:
# Assay in all cases: glycan array binding signal (z-score within array); higher = stronger binding
# Details in all cases: glycan notation: IUPAC condensed, linker removed
# [1] = target: Fuc(a1-2)[Gal(a1-3)]Gal
# Summary of the method: (§1)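 Glycan array data were curated from 3228 arrays in the Consortium for Functional Glycomics database and kept only where the protein sequence was available. Glycan names were converted to IUPAC-condensed notation, and columns mapping to the same glycan were averaged. The binding signal is a within-array Z-score, averaged across arrays of the same protein sequence at different concentrations or buffers and across linkers. Negative Z-scores can be read as non-binding.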
# [2] = target: Fuc(a1-2)[Gal(a1-3)]Gal(b1-3)GlcNAc
# Summary of the method: as §1
# [3] = target: Fuc(a1-2)[Gal(a1-3)]Gal(b1-3)GlcNAc(b1-2)Man(a1-3)[Fuc(a1-2)[Gal(a1-3)]Gal(b1-3)GlcNAc(b1-2)Man(a1-6)]Man(b1-4)GlcNAc(b1-4)GlcNAc
# Summary of the method: as §1
# [4] = target: Fuc(a1-2)[Gal(a1-3)]Gal(b1-4)Glc
# Summary of the method: as §1
# [5] = target: Fuc(a1-2)[Gal(a1-3)]Gal(b1-4)GlcNAc
# Summary of the method: as §1
# [6] = target: Fuc(a1-2)[Gal(a1-3)]Gal(b1-4)GlcNAc(b1-2)Man(a1-3)[Fuc(a1-2)[Gal(a1-3)]Gal(b1-4)GlcNAc(b1-2)Man(a1-6)]Man(b1-4)GlcNAc(b1-4)GlcNAc
# Summary of the method: as §1
# [7] = target: Fuc(a1-2)[Gal(a1-3)]Gal(b1-4)[Fuc(a1-3)]GlcNAc
# Summary of the method: as §1
# [8] = target: Fuc(a1-2)[Gal(a1-4)]Gal(b1-4)GlcNAc
# Summary of the method: as §1
# [9] = target: Fuc(a1-2)[GalNAc(a1-3)]Gal
# Summary of the method: as §1
# [10] = target: Fuc(a1-2)[GalNAc(a1-3)]Gal(b1-3)GalNAc(a1-3)[Fuc(a1-2)]Gal(b1-4)GlcNAc
# Summary of the method: as §1
# [11] = target: Fuc(a1-2)[GalNAc(a1-3)]Gal(b1-3)GlcNAc
# Summary of the method: as §1
# [12] = target: Fuc(a1-2)[GalNAc(a1-3)]Gal(b1-3)GlcNAc(b1-2)Man(a1-3)[Fuc(a1-2)[GalNAc(a1-3)]Gal(b1-3)GlcNAc(b1-2)Man(a1-6)]Man(b1-4)GlcNAc(b1-4)GlcNAc
# Summary of the method: as §1
# [13] = target: Fuc(a1-2)[GalNAc(a1-3)]Gal(b1-4)Glc
# Summary of the method: as §1
# [14] = target: Fuc(a1-2)[GalNAc(a1-3)]Gal(b1-4)GlcNAc
# Summary of the method: as §1
# [15] = target: Fuc(a1-2)[GalNAc(a1-3)]Gal(b1-4)GlcNAc(b1-2)Man(a1-3)[Fuc(a1-2)[GalNAc(a1-3)]Gal(b1-4)GlcNAc(b1-2)Man(a1-6)]Man(b1-4)GlcNAc(b1-4)GlcNAc
# Summary of the method: as §1
# [16] = target: Fuc(a1-2)[GalNAc(a1-3)]Gal(b1-4)GlcNAc(b1-3)Gal(b1-4)GlcNAc
# Summary of the method: as §1
# [17] = target: Fuc(a1-2)[GalNAc(a1-3)]Gal(b1-4)GlcNAc(b1-3)Gal(b1-4)GlcNAc(b1-3)Gal(b1-4)GlcNAc
# Summary of the method: as §1
# [18] = target: Fuc(a1-2)[GalNAc(a1-3)]Gal(b1-4)[Fuc(a1-3)]GlcNAc
# Summary of the method: as §1
# [19] = target: Fuc(a1-2)[GalNAc(a1-4)]Gal(b1-4)GlcNAc
# Summary of the method: as §1
# [20] = target: Fuc(a1-2)[GalNAc(b1-3)]Gal
# Summary of the method: as §1
# [21] = target: Fuc(a1-3)GlcNAc
# Summary of the method: as §1
# [22] = target: Fuc(a1-3)[Gal(b1-4)]Glc6S
# Summary of the method: as §1
# [23] = target: Fuc(a1-3)[Gal(b1-4)]GlcNAc
# Summary of the method: as §1
# [24] = target: Fuc(a1-3)[Gal(b1-4)]GlcNAc(b1-2)Man(a1-3)[Fuc(a1-3)[Gal(b1-4)]GlcNAc(b1-2)Man(a1-6)]Man(b1-4)GlcNAc(b1-4)GlcNAc
# Summary of the method: as §1
# [25] = target: Fuc(a1-3)[Gal(b1-4)]GlcNAc(b1-3)Gal(b1-3)[Fuc(a1-4)]GlcNAc
# Summary of the method: as §1
# [26] = target: Fuc(a1-3)[Gal(b1-4)]GlcNAc(b1-3)GalNAc
# Summary of the method: as §1
# [27] = target: Fuc(a1-3)[Gal(b1-4)]GlcNAc(b1-4)Gal(b1-4)[Fuc(a1-3)]GlcNAc
# Summary of the method: as §1
# [28] = target: Fuc(a1-3)[Gal(b1-4)]GlcNAc(b1-4)Gal(b1-4)[Fuc(a1-3)]GlcNAc(b1-4)Gal(b1-4)[Fuc(a1-3)]GlcNAc
# Summary of the method: as §1
# [29] = target: Fuc(a1-3)[Gal(b1-4)]GlcNAc(b1-6)[Gal(b1-3)GlcNAc(b1-3)]Gal(b1-4)Glc
# Summary of the method: as §1
# [30] = target: Fuc(a1-3)[Gal(b1-4)]GlcNAc6S
# Summary of the method: as §1
# [31] = target: Fuc(a1-3)[Gal3S(b1-4)]GlcNAc
# Summary of the method: as §1
# [32] = target: Fuc(a1-3)[Gal3S(b1-4)]GlcNAc6S
# Summary of the method: as §1
# [33] = target: Fuc(a1-3)[GalNAc(b1-4)]GlcNAc
# Summary of the method: as §1
# [34] = target: Fuc(a1-4)GlcNAc
# Summary of the method: as §1
# [35] = target: Fuc(b1-3)GlcNAc
# Summary of the method: as §1
# [36] = target: Gal(a1-2)Gal
# Summary of the method: as §1
# [37] = target: Gal(a1-3)Gal
# Summary of the method: as §1
# [38] = target: Gal(a1-3)Gal(b1-3)GlcNAc
# Summary of the method: as §1
# [39] = target: Gal(a1-3)Gal(b1-3)GlcNAc(b1-2)Man(a1-3)[Gal(a1-3)Gal(b1-3)GlcNAc(b1-2)Man(a1-6)]Man(b1-4)GlcNAc(b1-4)GlcNAc
# Summary of the method: as §1
# [40] = target: Gal(a1-3)Gal(b1-3)[Fuc(a1-4)]GlcNAc(b1-2)Man(a1-3)[Gal(a1-3)Gal(b1-3)[Fuc(a1-4)]GlcNAc(b1-2)Man(a1-6)]Man(b1-4)GlcNAc(b1-4)GlcNAc
# Summary of the method: as §1
# [41] = target: Gal(a1-3)Gal(b1-4)Glc
# Summary of the method: as §1
# [42] = target: Gal(a1-3)Gal(b1-4)GlcNAc
# Summary of the method: as §1
# [43] = target: Gal(a1-3)Gal(b1-4)GlcNAc(b1-3)GalNAc
# Summary of the method: as §1
# [44] = target: Gal(a1-3)Gal(b1-4)[Fuc(a1-3)]GlcNAc
# Summary of the method: as §1
# [45] = target: Gal(a1-3)Gal(b1-4)[Fuc(a1-3)]GlcNAc(b1-2)Man(a1-3)[Gal(a1-3)Gal(b1-4)[Fuc(a1-3)]GlcNAc(b1-2)Man(a1-6)]Man(b1-4)GlcNAc(b1-4)GlcNAc
# Summary of the method: as §1
binder,measurement,setting,value
Gal 1 (Canis lupus) (protein) MACGLVASNLSLKPGQCLRVQCEVVPEAKSFVLNLGKDGDNLCLHFNPRFEAHGDVNTIVCNSKDGGAWGEELRESAFPFQPGTVTEVCISFDQADLTIKLPDGYTFKFPNRLNLEAISYLAADGDMKIKCLAFD,glycan array binding signal (z-score),[1],-0.319
same,glycan array binding signal (z-score),[2],-0.288
same,glycan array binding signal (z-score),[3],-0.316
same,glycan array binding signal (z-score),[4],-0.34
same,glycan array binding signal (z-score),[5],-0.318
same,glycan array binding signal (z-score),[6],-0.07
same,glycan array binding signal (z-score),[7],-0.293
same,glycan array binding signal (z-score),[8],-0.314
same,glycan array binding signal (z-score),[9],-0.288
same,glycan array binding signal (z-score),[10],-0.317
same,glycan array binding signal (z-score),[11],-0.322
same,glycan array binding signal (z-score),[12],-0.326
same,glycan array binding signal (z-score),[13],-0.312
same,glycan array binding signal (z-score),[14],-0.321
same,glycan array binding signal (z-score),[15],-0.132
same,glycan array binding signal (z-score),[16],-0.197
same,glycan array binding signal (z-score),[17],-0.094
same,glycan array binding signal (z-score),[18],-0.324
same,glycan array binding signal (z-score),[19],-0.331
same,glycan array binding signal (z-score),[20],-0.339
same,glycan array binding signal (z-score),[21],-0.341
same,glycan array binding signal (z-score),[22],-0.326
same,glycan array binding signal (z-score),[23],-0.327
same,glycan array binding signal (z-score),[24],-0.335
same,glycan array binding signal (z-score),[25],-0.342
same,glycan array binding signal (z-score),[26],-0.326
same,glycan array binding signal (z-score),[27],-0.323
same,glycan array binding signal (z-score),[28],-0.308
same,glycan array binding signal (z-score),[29],0.136
same,glycan array binding signal (z-score),[30],-0.283
same,glycan array binding signal (z-score),[31],-0.326
same,glycan array binding signal (z-score),[32],0.03
same,glycan array binding signal (z-score),[33],-0.329
same,glycan array binding signal (z-score),[34],-0.341
same,glycan array binding signal (z-score),[35],-0.333
same,glycan array binding signal (z-score),[36],-0.292
same,glycan array binding signal (z-score),[37],-0.279
same,glycan array binding signal (z-score),[38],0.129
same,glycan array binding signal (z-score),[39],-0.273
same,glycan array binding signal (z-score),[40],-0.274
same,glycan array binding signal (z-score),[41],-0.118
same,glycan array binding signal (z-score),[42],0.422
same,glycan array binding signal (z-score),[43],0.143
same,glycan array binding signal (z-score),[44],-0.32
same,glycan array binding signal (z-score),[45],-0.332
